# Assay results from PubChem BioAssay AID651820 (National Center for Advancing Translational Sciences (NCATS), 2012).
# Among all 340,000 compounds or so, about 12,000 (3.5%) were called active. The shares of active, inactive and inconclusive entries below differ from those in the screen. Calls follow the shape of the dose curve; as a rule, active = well fitted inhibition curve with a large enough effect; inconclusive = small, poorly fitted or top-dose-only effect, or another doubt; inactive = no such curve, though single readings can be large or run the other way. Potencies of inconclusive entries are left out as doubtful fits.
# Experiment: qHTS Assay for Inhibitors of Hepatitis C Virus (HCV)
# Conditions: Huh7.5.1 HCVcc-Cre (HCVcc is cell-culture hepatitis C virus) infection, luciferase reporter, 44 h; activity change, negative = inhibition: at 41.8 µM (top of the series) unless noted
# Outline: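 Cells (1,000/well) were plated 4 h before compound, then infected with HCVcc-Cre virus (~0.5 moi). After 44 h further culture, infection was read as luciferase luminescence following a 15 min substrate incubation at room temperature.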
# % is scaled to controls: 0 for no effect and ±100 for the full control effect; potency is read from the fitted curve at half-maximal effect; tags tell the direction and shape of the fitted curve.
Structure (SMILES),Potency,"activity change, negative = inhibition"
C=CCNc1nc2c(c(=O)n(C)c(=O)n2C)n1Cc1ccc(F)cc1,active: 6.31 µM,–
Cc1ccc(C(=O)Nc2ccc3c(c2)OCO3)o1,–,inactive: 6.04%
COc1ccc(-c2noc(CCC(=O)N3CCN(c4ccccc4)CC3)n2)cc1,–,inactive: 0.328%
Cc1cc(Cl)c2oc(C(=O)NC3CCC(O)CC3)c(C)c2c1 (configuration not stated),active: 14.1 µM,–
Cn1c(=O)cc(SCC(=O)NCC2COc3ccccc3O2)c2ccccc21 (configuration not stated),–,inactive: -1.64%
O=C(CN1C(=O)NC(c2ccccc2)(c2ccccc2)C1=O)Nc1ccc(N2CCOCC2)cc1,"inconclusive [inhibitor, single point]",–
CC(C)NC(=O)CN1C(=O)CSc2ccc(S(=O)(=O)N3CCCC3)cc21,–,inactive: 2.01%
O=C1c2ccccc2NC(c2cccs2)N1O (configuration not stated),–,inactive: 1.49%
CCOc1ccc(NC(=O)CN(C)C(=O)c2cccnc2Sc2ccc(Cl)cc2)cc1OCC,"inconclusive [inhibitor, single point]",–
Cc1csc(NC(=O)c2ccc(Br)s2)n1,–,inactive: 0.185%
COc1cc(NC(=O)COc2cc(O)c3c(c2)OC(C)(C)CC3=O)cc(OC)c1,active: 2.82 µM,–
Cc1cc(C)nc(N2CCC(C(=O)O)CC2)n1,–,inactive: 18.1%
O=C(c1ccco1)N1CCN(C(=O)c2ccc(-c3ccc([N+](=O)[O-])cc3)o2)CC1,"inconclusive [inhibitor, single point]",–
COc1cc(C)nc(N(Cc2ccccc2)S(=O)(=O)c2ccc(C)cc2)n1,"inconclusive [inhibitor, single point]",–
C=CCOc1ccccc1/C=N/n1nnnc1N,"inconclusive [inhibitor, single point]",–
Cc1cc(Cl)ccc1C(=O)C1CCCN(C(=O)c2cncs2)C1 (configuration not stated),"inconclusive [inhibitor, single point]",–
COc1cc(C(=O)OCCN2CCOCC2)ccc1O,–,inactive: 11.4%
O=C(Nc1ccccc1N1CCN(C(=O)c2ccccc2)CC1)c1cccc(Cl)c1,"inconclusive [inhibitor, single point]",–
COc1ccc(CNC(=O)CCNS(=O)(=O)c2ccc3c(c2)oc(=O)n3C)cc1,"inconclusive [inhibitor, single point]",–
CNS(=O)(=O)c1ccc(NC(=S)Nc2ccc3c(c2)OCO3)cc1,–,inactive: 11.4%
CSCc1ccc(C(=O)OCc2nc3ccccc3s2)o1,–,inactive: -0.525%
CCn1cc(C(=O)NCc2ccc3c(c2)OCO3)c(=O)c2cc(F)c(N3CCN(C)CC3)cc21,"inconclusive [inhibitor, single point]",–
O=[N+]([O-])c1ccc2c(c1)/C(=N\O)c1ccccc1-2,"inconclusive [inhibitor, single point]",–
COc1ccc(C(=O)NC(=S)Nc2ccccc2N2CCOCC2)cc1Br,active: 15.8 µM,–

Structure (SMILES),Potency,"activity change, negative = inhibition"
Cc1nn(Cc2ccc(Cl)cc2Cl)c(C)c1NC(=O)CCl,active: 12.6 µM,–
CCOc1ccc(C(=O)NCc2ccc3c(c2)OCO3)cc1,"inconclusive [inhibitor, single point]",–
CCOc1ccc(N(CC(=O)NCC2CCCO2)C(=O)CCC(=O)Nc2nccs2)cc1 (configuration not stated),active: 22.4 µM,–
Cc1cc(C(=O)OCC(=O)Nc2cccc(S(=O)(=O)N(C)C)c2)c(C)o1,"inconclusive [inhibitor, partial curve]",–
Cc1c([N+](=O)[O-])c(C(=O)Sc2ccc(Br)cc2)nn1C,–,inactive: 3.86%
COC(=O)c1c(C)nn(-c2ccc(OC(F)(F)F)cc2)c1-c1snnc1C,–,inactive: -10.8%
CCCn1c(SCC(=O)N2CCN(c3ccc(OC)cc3)CC2)nc2c1c(=O)n(C)c(=O)n2C,"inconclusive [inhibitor, single point]",–
CC[C@@]1(C(=O)OC)N[C@H](CN(C)C(=O)Nc2ccc(F)cc2)[C@@H]2C(=O)N(C)C(=O)[C@@H]21,–,inactive: -9.88%
Cc1c(NS(=O)(=O)c2cccc(C(=O)Nc3cccc(F)c3)c2)c(=O)n(-c2ccccc2)n1C,"inconclusive [inhibitor, partial curve, poor fit]",–
CCN(CC)CCCNC(=S)N1CCC(c2nc3ccccc3[nH]2)CC1,–,inactive: 6.85%
COc1ccc(OC)c(C=NNC(=O)c2ccc(NS(=O)(=O)c3cccs3)cc2)c1,"inconclusive [inhibitor, partial curve]",–
CCOc1ccccc1N1CCN(Cc2cccc(OC)c2O)CC1,"inconclusive [inhibitor, single point]",–
COc1cc(/C=C/C(=O)O[C@H]2[C@H](O[C@@H]3O[C@@H](C)[C@H](O)[C@@H](O)[C@H]3O)[C@@H](O)[C@H](OCCc3ccc(O)c(OC)c3)O[C@@H]2CO)ccc1O,–,inactive: 21.7%
O=C(NNC(=O)c1ccc([N+](=O)[O-])cc1C(=O)O)c1ccncc1,"inconclusive [inhibitor, single point]",–
O=C(NC(=S)Nc1cccc2cccnc12)c1cccs1,"inconclusive [inhibitor, full curve, poor fit]",–
COc1ccc(-c2cc(C(F)(F)F)n3nc(C(=O)N4CCOCC4)c(Cl)c3n2)cc1,"inconclusive [inhibitor, partial curve]",–
Cc1ccc(/C=N/OC(=O)c2c(C)noc2-c2snnc2C)cc1,–,inactive: -10.6%
COc1ccc2nc3c(c(-c4ccccc4)c2c1)CCC3,"inconclusive [inhibitor, full curve]",–
CC(C)(C#CCN1CCCCC1)OCCOC(c1ccccc1)c1ccccc1,"inconclusive [inhibitor, single point]",–
CSc1ccc(CN(C)C(=O)c2cccc(S(=O)(=O)NCc3ccccc3)c2)cc1,"inconclusive [inhibitor, single point]",–
CCOC(=O)CSc1nc2sc3c(c2c(=O)n1C1CCCCC1)CCN(C)C3,"inconclusive [inhibitor, full curve]",–
COc1ccc(-c2sc3ccc(OC)cc3c2-c2ccc(O)cc2)cc1,active: 8.91 µM,–
C=CCn1c2ccccc2c(=O)c2cc(C#Cc3ccccn3)ccc21,active: 12.6 µM,–
